Data reported in PubChem BioAssay AID720542 (National Center for Advancing Translational Sciences (NCATS), 2013).
Among all 360,000 compounds or so, about 740 (0.21%) were called active. The inconclusive results got no clear call from the source; some entries with a clear call stand among them for comparison. Calls come from the whole dose curve; as a rule, active = well fitted inhibition curve with a large enough effect; inconclusive = small, poorly fitted or top-dose-only effect; inactive = no such curve, though single readings can be large or run the other way. No potency is given beside an inconclusive call; the fits are too rough.

What follows are compounds tested on Plasmodium falciparum AMA1 (3D7) - RON2 peptide interaction (assay: qHTS for Inhibitors of AMA1-RON; Towards Development of Antimalarial Drug Lead: Primary Screen). Details: AlphaScreen AMA1-biotinylated RON2 peptide binding; activity change, negative = inhibition: at 58.2 µM (top of the series) unless noted.
Procedure, shortened: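 AMA1 (3D7) with his tag at 25 nM final met compounds first, then biotinylated RON2 peptide at 25 nM; detection used donor plus acceptor beads, 10 µg/mL apiece, read by AlphaScreen after 30 min at room temperature.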
Note: nearly all actives have a fitted effect of over 45% in size.
Potency is the fitted concentration of half-maximal effect; tags give direction and shape of the fitted curve.
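Throughout, for activity change, negative = inhibition: 0% = vehicle wells and -100% = peptide control.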

**Q.** Which Potency does the source give for `O=C(NCc1ccncc1)C1Cc2c(-c3ccccc3Oc3ccccc3)ccnc2O1` (stereo not drawn) here?
**A.** inconclusive [inhibitor, partial curve]

**Q.** With `COc1ccc(CN2C(=O)c3ccccc3C2OC)cc1` (stereo not drawn) as the compound, how does the activity change, negative = inhibition read?
**A.** inconclusive: -1.49% [inhibitor]

**Q.** How did the “activity change, negative = inhibition” value turn out when `O=C(N/N=C/c1c[nH]c2ccccc12)c1cc(-c2ccccc2)n[nH]1` was run?
**A.** inactive: 47%

**Q.** How did the “activity change, negative = inhibition” value turn out when `CCOc1ccc2[nH]c3c(NCCN(CC)CC)ncnc3c2c1` was run?
**A.** inactive: 6.13%

**Q.** `O=C(COc1ccc(Br)cc1)N1CCN(Cc2ccc3c(c2)OCO3)CC1` was tested. Which Potency did it give?
**A.** inconclusive [inhibitor, single point]

**Q.** For `CC1CCN(C2=C(NS(=O)(=O)c3ccc(Cl)cc3)C(=O)c3ccccc3C2=O)CC1`, which Potency is on record?
**A.** inconclusive [inhibitor, partial curve]

**Q.** `CC(NC(=O)c1cccc(N(C)C)c1)c1ccc(-n2ccnc2)cc1` (stereo not drawn) was tested. Which Potency did it give?
**A.** inconclusive [inhibitor, partial curve]

**Q.** Which activity change, negative = inhibition does the source give for `Cc1ccc(Cl)cc1N1CCN(C(=O)Cn2ccc3ccccc3c2=O)CC1` here?
**A.** inconclusive: -20.3% [inhibitor]

**Q.** With `COc1ccc(-c2ocnc2C(=O)N2CCN(C(c3ccccc3)c3ccccc3)CC2)cc1` as the compound, how does the Potency read?
**A.** inconclusive [inhibitor, single point]

**Q.** Which Potency does the source give for `Cc1ccc(N=Nc2cc(C)ccc2N)cc1` here?
**A.** active: 31.6 µM

**Q.** How did the Potency turn out when `Cc1ccc([C@@H]2CC=C(C(=O)O)CN2S(=O)(=O)c2ccc(C)cc2)cc1` was run?
**A.** inconclusive [inhibitor, single point]

**Q.** How did the “activity change, negative = inhibition” value turn out when `O=C(CN1CCN(C(=O)CN2C(=O)NC3(CCCC3)C2=O)CC1)Nc1cccc(F)c1` was run?
**A.** inactive: 6.04%

**Q.** For `Fc1cccc(NC(=S)NNc2c3ccccc3nc3ccccc23)c1`, which Potency is on record?
**A.** inconclusive [inhibitor, full curve, poor fit]

**Q.** With `Cc1ccccc1-c1cnc(C(O)c2c(C)ccc3ccccc23)[nH]1` (stereo not drawn) as the compound, how does the “activity change, negative = inhibition” value read?
**A.** inactive: 14.9%

**Q.** Which Potency does the source give for `CC(C)(C)NC(=O)C[C@H]1C[C@H](C(=O)N2CCCCC2)[C@@]2(C)c3[nH]c4cc(-c5ccco5)ccc4c3CCN2C1=O` here?
**A.** inconclusive [inhibitor, single point]

**Q.** Which Potency does the source give for `COCc1c(C(=O)Nc2cccc(S(=O)(=O)N3CCCCC3)c2)oc2ccccc12` here?
**A.** inconclusive [inhibitor, partial curve]

**Q.** How did the Potency turn out when `CCCCCCCN=CC1=C(O)CC(c2ccccc2)CC1=O` (stereo not drawn) was run?
**A.** inconclusive [inhibitor, partial curve]

**Q.** How did the Potency turn out when `O=C(CN1CCCCC1)n1c2ccccc2c2ccccc21` was run?
**A.** inconclusive [inhibitor, partial curve]

**Q.** With `O=C(NCC1CCCO1)c1nn2cccnc2c1Cl` (stereo not drawn) as the compound, how does the “activity change, negative = inhibition” value read?
**A.** inactive: 1.86%

**Q.** With `COc1ccccc1/C=c1\sc2nc(-c3ccco3)nn2c1=O` as the compound, how does the Potency read?
**A.** inconclusive [inhibitor, single point]

**Q.** `N#Cc1nc(-c2ccccc2Cl)oc1N1CCCCC1` was tested. Which Potency did it give?
**A.** inconclusive [inhibitor, partial curve]

**Q.** Which Potency does the source give for `O=C(CSc1ccncc1)Nc1ccc(S(=O)(=O)Nc2nccs2)cc1` here?
**A.** inconclusive [inhibitor, single point]

**Q.** With `CCOc1ccc(CC(=O)Nc2ccc(-c3ccc4nnc(C)n4n3)cc2)cc1` as the compound, how does the “activity change, negative = inhibition” value read?
**A.** inactive: -11.7%

**Q.** How did the “activity change, negative = inhibition” value turn out when `O=C(NNc1ccccn1)c1ccccc1CC[N+](=O)[O-]` was run?
**A.** inactive: 48.1%

**Q.** For `Cc1cccc(C(=O)O/N=C(/c2ccccc2)c2ccncc2)c1`, which Potency is on record?
**A.** inconclusive [inhibitor, partial curve, poor fit]

**Q.** Which activity change, negative = inhibition does the source give for `C(=N\N1CCN(C2c3ccccc3-c3ccccc32)CC1)/c1ccccn1` here?
**A.** inconclusive: -17.3% [inhibitor]

**Q.** With `COc1ccccc1N1CCN(CC(=O)Nc2ccc3c(c2)OCCO3)CC1` as the compound, how does the Potency read?
**A.** inconclusive [inhibitor, single point]

**Q.** For `O=C(N[C@@H]1CC[C@H](CCn2cc(-c3ccccn3)nn2)O[C@@H]1CO)c1ccncc1`, which Potency is on record?
**A.** inconclusive [inhibitor, partial curve]

**Q.** Which activity change, negative = inhibition does the source give for `COc1ccccc1NS(=O)(=O)c1ccc(Cl)c(NC(=S)NC(=O)C2CCCC2)c1` here?
**A.** inactive: -12.8% [at 11.6 µM]

**Q.** `CN(C)c1cccc(NC(=O)c2cccc3c(-c4ccc(F)c(F)c4)coc23)c1` was tested. Which Potency did it give?
**A.** inconclusive [inhibitor, partial curve]

**Q.** How did the Potency turn out when `O=C(/C=C/Nc1ccc(Nc2ccccc2)cc1)c1cccs1` was run?
**A.** inconclusive [inhibitor, partial curve]

**Q.** `CC(C)=CCN1CCN(Cc2c[nH]c3ccccc23)CC1CCO` (stereo not drawn) was tested. Which “activity change, negative = inhibition” value did it give?
**A.** inactive: 9.11%

**Q.** How did the “activity change, negative = inhibition” value turn out when `CCN1CCN(c2ccc(S(=O)(=O)N3CCOCC3)cc2NC(=O)COc2ccc(F)cc2Cl)CC1` was run?
**A.** inactive: -5.72%

**Q.** With `Cn1c(-c2ccccc2)cnc1NCc1ccc(-c2ccccc2)cc1` as the compound, how does the Potency read?
**A.** inconclusive [inhibitor, partial curve]

**Q.** How did the Potency turn out when `COc1ccc(S(=O)(=O)N2CC(C(=O)O)Oc3ccc(CC(=O)O)cc32)cc1` (stereo not drawn) was run?
**A.** inconclusive [inhibitor, single point]

**Q.** With `O=C(NCc1ccncc1)c1cc(C(=O)C2CCCCC2)c[nH]1` as the compound, how does the “activity change, negative = inhibition” value read?
**A.** inactive: -4.71%

**Q.** How did the Potency turn out when `COC(=O)C1=C(c2cccc(OCc3ccccc3)c2)C[C@@H]2CC[C@H]1N2C(=O)NCc1ccc2[nH]ccc2c1` was run?
**A.** inconclusive [inhibitor, partial curve, poor fit]

**Q.** How did the Potency turn out when `CN(C)c1ccc(-c2ccnc3c2CC(C)(C(=O)Nc2ccc(Cl)cc2)O3)cc1` (stereo not drawn) was run?
**A.** inconclusive [inhibitor, partial curve]

**Q.** `O=C1C(Nc2ccc(O)cc2)=C/C(=N/S(=O)(=O)c2cccs2)c2ccccc21` was tested. Which Potency did it give?
**A.** active: 25.1 µM

**Q.** Which Potency does the source give for `COc1ccc(C(=O)CNc2ccc(C)cc2C)cc1` here?
**A.** inconclusive [inhibitor, partial curve]

**Q.** How did the activity change, negative = inhibition turn out when `CCOc1cc(/C=C/c2cc(C(=O)O)c3ccccc3n2)ccc1OC` was run?
**A.** inconclusive: -17.7% [inhibitor]

**Q.** With `C=CC#CC[N+]1(CC#Cc2ccccc2)CCOCC1` as the compound, how does the Potency read?
**A.** inconclusive [inhibitor, single point]

**Q.** For `Cc1cc(C)c(NC(=O)COC(=O)C2CCC(=O)N2)c(C)c1` (stereo not drawn), which Potency is on record?
**A.** inconclusive [inhibitor, partial curve, poor fit]

**Q.** Which Potency does the source give for `COc1ccc(CNC(=O)C[C@H]2C[C@H](C(=O)N3CCCCC3)[C@@]3(C)c4[nH]c5ccc(Cl)cc5c4CCN3C2=O)cc1OC` here?
**A.** inconclusive [inhibitor, single point]

**Q.** Which Potency does the source give for `CCC(C)n1nccc1NC(=O)C(C)OC(=O)c1cc2ccccc2[nH]1` (stereo not drawn) here?
**A.** inconclusive [inhibitor, single point]

**Q.** For `CCOC(=O)C1CCN(C(=O)CCNS(=O)(=O)c2ccc3c(c2)CCN3C(=O)CC)CC1`, which “activity change, negative = inhibition” value is on record?
**A.** inactive: 3.84%

**Q.** `CCOc1ccc2oc(C(=O)NN3C(C)CCCC3C)c(C)c2c1` (stereo not drawn) was tested. Which Potency did it give?
**A.** inconclusive [inhibitor, partial curve]

**Q.** Which “activity change, negative = inhibition” value does the source give for `O=C(Nc1ccc(N2CCOCC2)cc1)c1ccncc1` here?
**A.** inactive: 1.47%

**Q.** Which Potency does the source give for `COc1ccc(N2CCN(CC(=O)Nc3cc(C)on3)CC2)cc1` here?
**A.** inconclusive [inhibitor, single point]

**Q.** For `Cc1ccc(S(=O)(=O)N2CCCN(Cc3nc4ccccc4c(=O)[nH]3)CC2)cc1`, which “activity change, negative = inhibition” value is on record?
**A.** inactive: 0.771%

**Q.** Which “activity change, negative = inhibition” value does the source give for `O=C(CSc1nc2ccccc2[nH]1)Nc1ccc(N2CCOCC2)cc1` here?
**A.** inactive: -1.3%

**Q.** Which “activity change, negative = inhibition” value does the source give for `CCOc1ccccc1NC(=O)Nc1cccc(C(C)=O)c1` here?
**A.** inactive: -20.2%

**Q.** How did the Potency turn out when `O=c1[nH]c2ccc(NCc3ccccc3OCc3ccc(Cl)cc3)cc2[nH]1` was run?
**A.** inconclusive [inhibitor, partial curve]

**Q.** Which Potency does the source give for `COc1cc(CN2CCN(C(=O)CC(C)C)CC2)c([N+](=O)[O-])cc1OC` here?
**A.** inconclusive [inhibitor, single point]

**Q.** For `O=C(COc1ccc(Nc2ccccc2)cc1)Nc1ccncc1`, which Potency is on record?
**A.** inconclusive [inhibitor, single point]

**Q.** How did the Potency turn out when `CCOc1cc(N2CCOCC2)c(OCC)cc1NC(=O)c1c(-c2ccccc2Cl)noc1C` was run?
**A.** inconclusive [inhibitor, partial curve]

**Q.** `COC(=O)c1sc(=S)n(Cc2ccccc2)c1C` was tested. Which Potency did it give?
**A.** inconclusive [inhibitor, single point]

**Q.** Which Potency does the source give for `COc1ccccc1N1CCN(/N=C/c2cc([N+](=O)[O-])ccc2Cl)CC1` here?
**A.** inconclusive [inhibitor, single point]

**Q.** For `CN1CCN(c2ccccc2NC(=O)c2ccc([N+](=O)[O-])cc2Cl)CC1`, which “activity change, negative = inhibition” value is on record?
**A.** inactive: -5.41%

**Q.** Which Potency does the source give for `COc1ccc(N2CCN(C(=O)c3oc4ccccc4c3NC(=O)Cc3cccc(OC)c3)CC2)cc1` here?
**A.** inconclusive [inhibitor, partial curve]

**Q.** `O=C(Nc1cc2c(oc1=O)CCCC2=O)c1ccc(Cl)cc1` was tested. Which Potency did it give?
**A.** inconclusive [inhibitor, single point]

**Q.** For `CN(c1ncc(C(F)(F)F)cc1Cl)n1cc(C(=O)O)c2ccccc2c1=O`, which Potency is on record?
**A.** inconclusive [inhibitor, full curve]

**Q.** With `COc1ccc(/C=C/C(=O)c2ccccc2)cc1Cn1nnc2ccccc21` as the compound, how does the Potency read?
**A.** inconclusive [inhibitor, single point]

**Q.** With `Cc1ccc(C)n1-c1nn(S(=O)(=O)c2cccc3cccnc23)c2cccc(F)c12` as the compound, how does the Potency read?
**A.** inconclusive [inhibitor, full curve, poor fit]

**Q.** With `Cc1ccc(NC(=O)COc2ccccc2)cc1S(=O)(=O)N1CCCCC1` as the compound, how does the “activity change, negative = inhibition” value read?
**A.** inactive: -8.21%

**Q.** For `O=C1C(=Cc2ccccc2O)SC(=S)N1CCCN1CCOCC1`, which “activity change, negative = inhibition” value is on record?
**A.** inactive: 1.77%

**Q.** How did the “activity change, negative = inhibition” value turn out when `COc1cccc(/C(O)=C2/C(=O)C(=O)N(Cc3ccco3)C2c2ccncc2)c1` (stereo not drawn) was run?
**A.** inactive: -7.44%

**Q.** Which Potency does the source give for `CN(C)c1ccc(NC(=O)Cn2cc3c(n2)CCCC3)cc1` here?
**A.** inconclusive [inhibitor, single point]
